Among all 52,000 compounds or so, about 1,700 (3.3%) were called active. Rule as the data show it: active = survival mostly below about 52% (no sharp cut-off); inactive = mostly above about 56%. This is one part of the list.

In PubChem BioAssay AID463173 (ICCB-Longwood Screening Facility, Harvard Medical School, 2010) one finds survival data, which are given here for 86 molecules.

This experiment concerns Wild type. Kind of experiment: growth inhibition of S. aureus wild type versus tarO mutant, primary screen, teichoic acid synthesis inhibitors, RN4220, OD600 (AID 463173). Conditions: S. aureus RN4220 wild type/DeltatarO growth, OD600, 18 h, active compounds read low, screened at 18.75 µg/mL (by protocol).
Take `CCOc1ccc(CN(C(=O)c2nc(SC)ncc2Cl)C2CCS(=O)(=O)C2)cc1` (stereo unspecified): the survival was inactive: 87%.
With `CC(C)CNCC1OCc2ccccc2CO1`, the survival was inactive: 98%.
`CCOC(=O)c1noc2ncnc(N3CCN(c4cccc(Cl)c4)CC3)c12`: the survival is inactive: 75%.
Turning to `CCOC(=O)N1CCc2c(sc3c2c(=O)n(-c2ccc(Cl)cc2)c(=O)n3Cc2cccc(OC)c2)C1`, the survival is inactive: 120%.
Under `COCCCNC(=O)c1ccc(Cn2c(=O)c3ccccc3n(CC(=O)Nc3ccc(C)cc3C)c2=O)cc1` stands inactive: 100%; under `COc1ccc(-c2nc3nc(C)cc(N4CCN(c5cccc(C(F)(F)F)c5)CC4)n3n2)cc1`, inactive: 88%.
Under `Cc1cc(C)cc(NC(=O)Cn2nnc(C(=O)NCc3ccccc3Cl)c2N)c1` stands inactive: 77%.
Under `COc1ccc(CCNC(=O)c2cc3c(s2)-c2c(C)cccc2OC3)c(OC)c1` stands inactive: 103%; under `CCOc1ccc(C(=O)Nc2ccccc2C(=O)OCc2cc(=O)n3nc(C4CC4)sc3n2)cc1`, inactive: 78%.
In the case of `CC(C)c1cc(C(=O)NC(C)c2ccccc2)no1` (stereo unspecified), the survival is inactive: 81%.
As for `Cc1ccc(-c2nc(S(=O)(=O)c3ccc(C)cc3)c(SCC(=O)Nc3ccc(F)cc3)o2)cc1`, the survival was inactive: 73%.
To `CCN(Cc1ccccc1)C(=O)c1cc2c(=O)oc3ccc(C)cc3c2s1` belongs inactive: 83%.
To `CCc1ccc(S(=O)(=O)c2nnn3c2nc(Nc2cc(OC)cc(OC)c2)c2cc(Cl)ccc23)cc1` belongs inactive: 95%.
To `Cc1cccc(N2CC(c3nc4ccccc4n3CCC3CCCCC3)CC2=O)c1` (stereo unspecified) belongs inactive: 44%; to `Cc1cccc2c1-c1sc(C(=O)NCc3ccc(Cl)cc3)cc1CO2`, inactive: 95%.
In the case of `CCCCCSc1nnc2c(n1)OC(CC)Nc1ccc(Br)cc1-2` (stereo unspecified), the survival is inactive: 61%.
Consider `COCCn1c(C)cc(O)c(C(c2ccc(Cl)cc2)N2CCN(c3ccccc3)CC2)c1=O` (stereo unspecified), for which the survival was inactive: 65%.
Turning to `CN1C(C(=O)c2ccccc2)=C(NC(=O)c2ccccc2Br)c2ccccc2S1(=O)=O`, the survival was inactive: 81%.
Regarding `COc1ccc(NC(=O)Nc2cccc(OCc3cc(=O)n4cccc(C)c4n3)c2)c(OC)c1`, the survival was inactive: 85%.
To `CCn1c(=O)cc(SCC(=O)NCCc2cccc(C)c2)c2ccccc21` belongs inactive: 90%; to `O=S(=O)(c1ccc2[nH]c3c(c2c1)CCCC3)N1CCN(c2cccc(C(F)(F)F)c2)CC1`, inactive: 71%.
To `Cc1nc2ccc(S(=O)(=O)NC(C(=O)N3CCN(c4ccc(Cl)cc4)CC3)C(C)C)cc2s1` (stereo unspecified) belongs inactive: 66%; to `CCc1ccc(NC(=O)Cc2csc(COc3cccc(C)c3)n2)cc1`, inactive: 97%.
To `O=c1n(Cc2ccc(Cl)cc2)c2ccccc2c2nc(-c3ccccc3)nn12` belongs inactive: 51%.
With `Cc1cc(C)cc(Nc2nc3ccccc3n3cnnc23)c1`, the survival is inactive: 87%.
To `COc1cc(C2N=C(N)Nc3nc4ccccc4n32)ccc1OCC(=O)O` (stereo unspecified) belongs inactive: 73%; to `CC(=O)c1ccc(N2CCN(c3nc4c(S(=O)(=O)c5ccc(C)c(C)c5)nnn4c4ccc(Cl)cc34)CC2)cc1`, inactive: 87%.
`Cc1cc(C)cc(-n2ccnc2SCC(=O)Nc2ccc(C)cc2C)c1`: the survival is inactive: 127%.
Under `COc1ccc(-c2cc(C(=O)NCc3ccc(F)cc3)no2)cc1` stands inactive: 145%.
With `O=C(CCCn1c(=O)c2ccccc2n(CC(=O)Nc2cccc(Cl)c2)c1=O)NCc1ccc2c(c1)OCO2`, the survival is inactive: 88%.
To `CCOc1ccc2oc(=O)cc(CN3CCN(Cc4ccc(F)cc4)CC3)c2c1` belongs inactive: 86%.
Consider `CCC(C(=O)Nc1cc(OC)ccc1OC)n1c(=O)c(C(F)(F)F)nc2ccccc21` (stereo unspecified), for which the survival is inactive: 75%.
For the molecule `CCC(=O)N1CCc2cc(Br)cc(S(=O)(=O)CCC(=O)N3CCN(c4ccc(OC)cc4)CC3)c21`, the survival was inactive: 66%.
Under `CC(C)c1ccc(Nc2ncnc3c2nc2n3CCCC2)cc1` stands inactive: 87%.
To `COc1cc(NC(=O)CNC(=O)Cn2ccc3ccccc3c2=O)cc(OC)c1OC` belongs inactive: 130%; to `CCC(=O)Nc1ccccc1-c1nc2ccccc2n(C(C)C(=O)Nc2cccc(Cl)c2C)c1=O` (stereo unspecified), inactive: 78%; to `Cc1ccc(Cc2cnc(NC(=O)C3Cc4ccc(C)cc4C(=O)O3)s2)cc1` (stereo unspecified), inactive: 82%.
To `COc1ccc(CCNc2nc(-c3ccc(F)cc3)cc(C(F)(F)F)n2)cc1OC` belongs inactive: 142%.
As to `COc1ccc(C(CNC(=O)c2cccc([N+](=O)[O-])c2)N2CCOCC2)cc1` (stereo unspecified), the survival was inactive: 82%.
Regarding `COC(=O)c1cnn(-c2ccc(C(=O)Nc3ccc(OC(F)(F)F)cc3)cc2)c1N`, the survival was inactive: 19%.
Consider `CCc1ccc(NC(=O)CN2CCSc3ccc(S(=O)(=O)N4CCCC4)cc32)cc1`, for which the survival was active: -6%.
To `CCNS(=O)(=O)c1ccc(S(=O)(=O)N(Cc2ccccn2)C2CCCCC2)cc1` belongs inactive: 107%.
To `CCOc1ccc(S(=O)(=O)c2cn(C)c3ccccc3c2=O)cc1` belongs inactive: 81%; to `O=C1C(Cc2ccccc2)S/C(=N/N=C/c2ccco2)N1c1ccccc1` (stereo unspecified), inactive: 108%; to `CC(NC(=O)c1c2c(nc3ccccc13)C(=O)N(C1CCCCC1)C2)c1ccccc1` (stereo unspecified), inactive: 73%.
Regarding `Cc1ccc(CNC(=O)Cn2c(=O)ccc3cc(S(=O)(=O)N4CCCC4)ccc32)cc1`, the survival was inactive: 79%.
To `Cc1ccc(NC(=O)CN2C(=O)CCn3nc(-c4cccn4C)cc32)c(Cl)c1` belongs inactive: 111%; to `CCN(C(=O)c1cccn(Cc2ccccc2C)c1=O)c1ccccc1`, inactive: 113%.
On to `CN(C)c1ccc(NC(=O)CN2C(=O)c3ccccc3Sc3ccc(C(=O)N4CCCC4)cc32)cc1`, for which the survival was active: -4%.
For `CCOC(=O)C1CCN(C(=O)Cn2ncc3c4ccccc4n(Cc4ccccc4F)c3c2=O)CC1`, the survival is inactive: 83%.
To `CCOC(=O)c1ccccc1NC(=O)c1ccco1` belongs inactive: 121%.
Take `Cc1cccc(N2CCN(CCCNC(=O)c3sc4ncccc4c3-n3cccc3)CC2C)c1` (stereo unspecified): the survival was inactive: 79%.
As for `O=C(Cn1c(-c2cccs2)cc2cc(F)ccc21)NCCCN1CCN(c2ccccc2F)CC1`, the survival is inactive: 73%.
Under `Cc1nn(CCCC(=O)NCc2cccc(Cl)c2)c(=O)c2c1sc1ccccc12` stands inactive: 84%; under `Cc1nnc(NC(=O)CSc2nnc3c(n2)[nH]c2ccccc23)s1`, inactive: 80%.
To `Cc1ccc(F)cc1NC(=O)c1ccc(Cn2nc(N3CCN(c4ccccc4)CC3)ccc2=O)o1` belongs inactive: 127%; to `O=c1n(Cc2ccc(F)cc2)nc2n1-c1cc(Cl)ccc1OC2`, inactive: 76%; to `COc1ccc(NC(=O)C2CCN(c3nc4ccccc4nc3C(F)(F)F)CC2)cc1`, inactive: 130%.
In the case of `CCOc1ccccc1CNC(=O)c1cnc2c(-c3ccc(OCC)c(OCC)c3)c(C)nn2c1C`, the survival is inactive: 72%.
To `O=C(Cn1cc(SCc2ccccc2)c2ccccc21)N1CCCCCC1` belongs inactive: 83%; to `Cc1cc(NC(=O)C2CCCCC2)no1`, inactive: 109%.
To `COc1ccc(-c2cn3nc(N4CCC(C(=O)Nc5ccc(Cl)cc5C)CC4)sc3n2)cc1` belongs inactive: 78%; to `Cc1oc(-c2ccc(C(=O)NCCc3ccc(Cl)cc3)cc2)nc1CSc1ccccc1`, inactive: 59%; to `COc1ccc(-n2nc(C(=O)NCCc3ccc(OC)c(OC)c3)c3c4ccccc4n(C)c3c2=O)cc1Cl`, inactive: 91%.
Consider `Cc1ccc(N2CCN(c3c(CN4CCCC4)c(=O)oc4ccccc34)CC2)c(C)c1`, for which the survival was inactive: 74%.
Turning to `Cc1ccc2c(c1)N(CC(=O)OCC(=O)NCc1ccccc1)C(=O)CO2`, the survival is inactive: 103%.
Under `COCCCNC(=O)c1c(NC(=O)c2cc(=O)c3ccccc3o2)sc2c1CCCC2` stands inactive: 111%; under `Cc1ccc(-c2nc(SCC(=O)N3CCc4ccccc43)c3c(=O)n(C)c(=O)n(C)c3n2)cc1`, inactive: 81%.
Under `Cc1ccc2nc(-c3ccc(Cl)c(NC(=O)c4cccc([N+](=O)[O-])c4C)c3)oc2c1` stands inactive: 127%.
To `Cc1ccccc1CN1C(=O)c2ccccc2Sc2ccc(C(=O)OCc3ccco3)cc21` belongs inactive: 77%; to `CCOC(=O)C1CCC(CN(Cc2c(Cl)cccc2Cl)S(=O)(=O)c2ccc(Cl)cc2)CC1` (stereo unspecified), inactive: 88%; to `CCn1ccc2cc(S(=O)(=O)N3CCC(C(=O)NCc4ccc(OC)cc4)CC3)ccc21`, active: -3%.
Take `O=C(NCc1ccccc1)c1ccc2c(c1)N(Cc1cccc(Cl)c1)C(=O)c1ccccc1S2(=O)=O`: the survival was inactive: 74%.
Regarding `O=C(CCSc1nnc(-c2ccco2)o1)N1CCOCC1`, the survival was inactive: 94%.
To `COc1cc(/C=C/c2nc3cc(Cl)ccc3c(=O)n2-c2cccc(C(F)(F)F)c2)cc(OC)c1OC` belongs inactive: 72%; to `O=C(COCc1cc(-c2ccco2)on1)Nc1cccc(O)c1`, inactive: 73%; to `COc1ccc(-c2c(C#N)c(N)nc(OC)c2C#N)cc1`, inactive: 118%.
As to `COc1ccc(Cn2c(SCC(=O)Nc3ccc(OC)cc3)nc3ccccc32)cc1`, the survival is inactive: 85%.
On to `Cc1ccc(-c2nc3c(cnn3-c3ccccc3)c(=O)n2-c2cccc(Cl)c2)cc1`, for which the survival was inactive: 65%.
In the case of `CN(C)S(=O)(=O)c1ccc2c(c1)N(CC(=O)N1CCN(c3cccc(Cl)c3)CC1)CCS2`, the survival was inactive: 80%.
For the molecule `COc1cc(OC)c(N(C)C(=O)C2CCCN(c3ncnc4c3nc3n4CCCCC3)C2)cc1Cl` (stereo unspecified), the survival is inactive: 76%.
`Cn1c(=O)c(=O)n(C)c2cc(S(=O)(=O)CCC(=O)Nc3cccc(C(F)(F)F)c3)ccc21`: the survival was inactive: 86%.
Under `CC1CCCN(Cc2c(O)ccc3c(=O)c(Oc4ccc(C(C)(C)C)cc4)c(C(F)(F)F)oc23)C1` (stereo unspecified) stands inactive: 58%.
Regarding `Cc1onc(-c2ccccc2)c1C(=O)Nc1ccc(S(=O)(=O)Nc2ncccn2)cc1`, the survival was inactive: 106%.
Under `COc1cc(NC(=O)Nc2nnc(N3CCCCCC3)s2)cc(OC)c1` stands inactive: 78%.
Consider `O=C(N1CCOCC1)N1CCN(c2ccccc2)CC1`, for which the survival was inactive: 98%.
